Experimental data: the supplement of paper PMC4604168 (melanoma cell lines)
The list shows a part of the results. Most values come without repeats; read them as rough.

Key:
Experiment in all cases: cell count relative to DMSO control; melanoma cells; higher = more viable cells
Settings in all cases: library dose: standard library concentration; 72 h
[1] = tested on: G361
[2] = tested on: IPC-298
[3] = tested on: IST-MEL1
[4] = tested on: LB2518-MEL
[5] = tested on: LOXIMVI
[6] = tested on: MEL-HO
[7] = tested on: MZ2-MEL
[8] = tested on: MeWo
[9] = tested on: RPMI7951
[10] = tested on: RVH-421
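Note: cells treated in 1,536-well plates, then fixed and DAPI-stained, with nuclei counted from automated high-throughput microscope images.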

Structure (SMILES)	cell count [1]	cell count [2]	cell count [3]	cell count [4]	cell count [5]	cell count [6]	cell count [7]	cell count [8]	cell count [9]	cell count [10]
CS(=O)(=O)c1ccc(C(=O)Nc2ccc(Cl)c(-c3ccccn3)c2)c(Cl)c1 [vismodegib] + CN1CCN(c2ccc3nc(-c4c(N)c5c(F)cccc5[nH]c4=O)[nH]c3c2)CC1 [Dovitinib] (first compound 5 µM, partner dose 0.5 µM)	83.9%	73.8%	81.8%	58.9%	120%	78.4%	47.4%	48.1%	74.9%	105%
CN(c1ncccc1CNc1nc(Nc2ccc3c(c2)CC(=O)N3)ncc1C(F)(F)F)S(C)(=O)=O + N#Cc1c(O)c2c(-c3ccc(-c4ccccc4O)cc3)csc2[nH]c1=O [A769662] (first compound 0.4 µM, partner dose 10 µM)	131%	110%	90.9%	92.4%	105%	108%	106%	101%	96%	132%
CCCS(=O)(=O)Nc1ccc(F)c(C(=O)c2c[nH]c3ncc(Cl)cc23)c1F + Cc1nc(Nc2ncc(C(=O)Nc3c(C)cccc3Cl)s2)cc(N2CCN(CCO)CC2)n1 [dasatanib] (first compound 0.4 µM, partner dose 0.02 µM)	59.6%	61.7%	66.5%	94.3%	25.6%	76%	39.3%	81.8%	59.1%	73.5%
CS(=O)(=O)c1ccc(C(=O)Nc2ccc(Cl)c(-c3ccccn3)c2)c(Cl)c1 [vismodegib] + Cc1cc(Nc2cc(N3CCN(C)CC3)nc(/C=C/c3ccccc3)n2)n[nH]1 [ENMD2076] (first compound 5 µM, partner dose 0.2 µM)	90.5%	89%	103%	81.8%	93.3%	98.2%	102%	74.7%	67%	84.5%
NC1(c2ccc(-c3nc4ccn5c(=O)[nH]nc5c4cc3-c3ccccc3)cc2)CCC1 + C=C(c1ccc(C(=O)O)cc1)c1cc2c(cc1C)C(C)(C)CCC2(C)C [Bexarotene] (first compound 2 µM, partner dose 10 µM)	78.2%	80.7%	75.5%	73.8%	87.3%	83%	76.6%	84%	63.9%	93.3%
CS(=O)(=O)c1ccc(C(=O)Nc2ccc(Cl)c(-c3ccccn3)c2)c(Cl)c1 [vismodegib] + CS(=O)(=O)CCNCc1ccc(-c2ccc3ncnc(Nc4ccc(OCc5cccc(F)c5)c(Cl)c4)c3c2)o1 [lapatinib] (first compound 5 µM, partner dose 4 µM)	41.6%	70.5%	92.6%	104%	93.5%	59.3%	55.6%	75.7%	67.2%	80.8%
CN(c1ncccc1CNc1nc(Nc2ccc3c(c2)CC(=O)N3)ncc1C(F)(F)F)S(C)(=O)=O + Oc1nc(-c2ccc(C(F)(F)F)cc2)nc2c1CSCC2 [XAV939] (first compound 0.4 µM, partner dose 10 µM)	77.4%	101%	103%	84.8%	88.6%	81%	98.5%	92%	64.3%	104%
CN(c1ncccc1CNc1nc(Nc2ccc3c(c2)CC(=O)N3)ncc1C(F)(F)F)S(C)(=O)=O + COc1cc(N2CCC(N3CCN(C)CC3)CC2)ccc1Nc1ncc(Cl)c(Nc2ccccc2S(=O)(=O)C(C)C)n1 [NVP-TAE684] (first compound 0.4 µM, partner dose 0.4 µM)	72.4%	92.1%	106%	97.7%	58.6%	93.5%	88.7%	71.2%	68.9%	98.5%
CN(c1ncccc1CNc1nc(Nc2ccc3c(c2)CC(=O)N3)ncc1C(F)(F)F)S(C)(=O)=O + O=C(O)c1ccc2c(c1)nc(Nc1cccc(Cl)c1)c1ccncc12 [CX4945] (first compound 0.4 µM, partner dose 2 µM)	66%	66%	47.5%	93.2%	72.9%	61.7%	52.8%	78.2%	55%	64.1%
CS(=O)(=O)c1ccc(C(=O)Nc2ccc(Cl)c(-c3ccccn3)c2)c(Cl)c1 [vismodegib] + COc1cc(Nc2ncc(F)c(Nc3ccc4c(n3)NC(=O)C(C)(C)O4)n2)cc(OC)c1OC [Tamatinib] (first compound 5 µM, partner dose 2 µM)	64.4%	75.7%	72.6%	68.9%	34.3%	69.9%	67.5%	78.6%	24.5%	61%
CCCS(=O)(=O)Nc1ccc(F)c(C(=O)c2c[nH]c3ncc(Cl)cc23)c1F + Cc1ccc(NC(=O)c2cccc(N(C)C)c2)cc1NC(=O)c1ccc(O)cc1 [ZM336372] (first compound 0.4 µM, partner dose 10 µM)	77.2%	108%	21.4%	108%	85%	96%	114%	104%	91.8%	72.1%
NC1(c2ccc(-c3nc4ccn5c(=O)[nH]nc5c4cc3-c3ccccc3)cc2)CCC1 + CCCS(=O)(=O)Nc1ccc(F)c(C(=O)c2c[nH]c3ncc(Cl)cc23)c1F [PLX4720] (first compound 2 µM, partner dose 0.4 µM)	32.9%	73.2%	71.4%	76.4%	84.7%	54.4%	55.6%	69.1%	63.2%	98%
CN(c1ncccc1CNc1nc(Nc2ccc3c(c2)CC(=O)N3)ncc1C(F)(F)F)S(C)(=O)=O + COc1ccc(Cl)c(Nc2nc3ccccc3nc2NS(=O)(=O)c2cccc(NC(=O)C(C)(C)N)c2)c1 [XL147] (first compound 0.4 µM, partner dose 4 µM)	71%	71.7%	51.5%	69.2%	108%	63%	68.1%	90.4%	52.9%	68.6%
CS(=O)(=O)c1ccc(C(=O)Nc2ccc(Cl)c(-c3ccccn3)c2)c(Cl)c1 [vismodegib] + COc1cc2c(Oc3ccc4[nH]c(C)cc4c3F)ncnc2cc1OCCCN1CCCC1 [cediranib] (first compound 5 µM, partner dose 2 µM)	99.8%	110%	119%	120%	61.9%	96.8%	116%	79.7%	112%	116%
NC1(c2ccc(-c3nc4ccn5c(=O)[nH]nc5c4cc3-c3ccccc3)cc2)CCC1 + c1cc(-c2cnn3cc(-c4ccc(OCCN5CCCCC5)cc4)cnc23)ccn1 [Dorsomorphin] (first compound 2 µM, partner dose 2 µM)	47.3%	75.6%	87.9%	62.2%	107%	69.9%	69.9%	62.3%	58.1%	80.8%
CS(=O)(=O)c1ccc(C(=O)Nc2ccc(Cl)c(-c3ccccn3)c2)c(Cl)c1 [vismodegib] + C[C@]1(c2nc3c(C(N)=O)cccc3[nH]2)CCCN1 [Veliparib] (first compound 5 µM, partner dose 7 µM)	85.7%	96.9%	94.4%	72.7%	107%	112%	104%	83%	101%	88.3%
CN(c1ncccc1CNc1nc(Nc2ccc3c(c2)CC(=O)N3)ncc1C(F)(F)F)S(C)(=O)=O + O=C(O)[C@@H]1[O][Sb](=[O])([O][Sb]2(=[O])[O][C@H]([C@H](O)CO)[C@H](O)[C@H](C(=O)O)[O]2)[O][C@H]([C@H](O)CO)[C@@H]1O [stibogluconate] (first compound 0.4 µM, partner dose 10 µM)	97.7%	86.9%	97.8%	112%	90.1%	106%	83.8%	97.9%	77.4%	117%
NC1(c2ccc(-c3nc4ccn5c(=O)[nH]nc5c4cc3-c3ccccc3)cc2)CCC1 + Oc1cc(-c2nc(-c3ccccc3)[nH]c2-c2ccncc2)ccc1Cl [L779450] (first compound 2 µM, partner dose 1 µM)	46.1%	83.8%	86.8%	99.4%	64.6%	76.1%	105%	62.6%	72.8%	72.4%
CN(c1ncccc1CNc1nc(Nc2ccc3c(c2)CC(=O)N3)ncc1C(F)(F)F)S(C)(=O)=O + Nc1cccc2c1CN(C1CCC(=O)NC1=O)C2=O [lenalidomide] (first compound 0.4 µM, partner dose 5 µM)	67.7%	75.1%	93.7%	88%	72.2%	79%	71%	85.8%	56.4%	75.2%
NC1(c2ccc(-c3nc4ccn5c(=O)[nH]nc5c4cc3-c3ccccc3)cc2)CCC1 + Cc1ccc(NC(=O)c2cccc(N(C)C)c2)cc1NC(=O)c1ccc(O)cc1 [ZM336372] (first compound 2 µM, partner dose 10 µM)	96.4%	123%	89.1%	79%	85.7%	90.2%	97.9%	98.9%	81.8%	85.5%
